Test results: PubChem BioAssay AID504832 (National Center for Advancing Translational Sciences (NCATS), 2011)
Hit rate of the full screen: of about 310,000 compounds, about 18,000 (5.8%) were called active. The shares of active, inactive and inconclusive entries below differ from those in the screen. Calls follow the shape of the dose curve; as a rule, active = well fitted inhibition curve with a large enough effect; inconclusive = small, poorly fitted or top-dose-only effect, or another doubt; inactive = no such curve, though single readings can be large or run the other way. No potency is given beside an inconclusive call; the fits are too rough.

test: Primary qHTS for delayed death inhibitors of the malarial parasite plastid, 48 hour incubation; conditions: P. falciparum luciferase growth in erythrocytes; series mostly up to 28.7 µM
Outline: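 Cell-based growth assay: transgenic P. falciparum expressing firefly luciferase, cultured in red cells within RPMI 1640 containing 0.5% w/v Albumax, 24 mM bicarbonate and gentamycin. A drop in luciferase activity indicates inhibition.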
Potency is read from the fitted curve at half-maximal effect; tags tell the direction and shape of the fitted curve.

| Structure (SMILES) | Potency |
| --- | --- |
| COc1cccc(CN2C(=O)C(C)Oc3ccccc32)c1 (stereo not given) | inconclusive [inhibitor, single point] |
| CCOC(=O)c1cnc2ccc(OC)cc2c1Nc1ccc2c(c1)OCCO2 | inconclusive [inhibitor, partial curve, poor fit] |
| CCN1CCN(C(c2nnnn2Cc2ccc3c(c2)OCO3)C(C)C)CC1 (stereo not given) | inactive |
| COc1ccc(-n2cc(CNCCc3nc(C)cc(C)n3)c(-c3ccccc3Cl)n2)cc1 | active: 11.7 µM |
| O=[N+]([O-])c1ccc(N2CCCC(C(F)(F)F)C2)c2ccncc12 (stereo not given) | active: 13.1 µM |
| CCOc1ccccc1-n1c(O)c(C=Nc2ccc(N(CC)CC)cc2)c(=O)[nH]c1=O | inconclusive [inhibitor, single point] |
| OC(c1ccc(Cl)cc1)C(CN1CCOCC1)c1ccccc1 (stereo not given) | active: 2.33 µM |
| COc1ccc(S(=O)(=O)N2CCCCCC2)cc1NC(=O)c1c2c(nc3ccccc13)CCN(Cc1ccccc1)C2 | active: 1.47 µM |
| Cc1ccc2cc(C#N)c(NCCNC(=O)C3CC3)nc2c1C | inconclusive [inhibitor, single point] |
| O=C(O)CCC(=O)NCCn1c(-c2ccccc2)csc1=Nc1ccccc1 | inactive |
| CCOC(=O)c1c(-c2cccs2)csc1NC(=O)CNCCN1CCOCC1 | inconclusive [inhibitor, single point] |
| C=CCOC(=O)C1=C(C)NC(C)=C(C(=O)OCC=C)C1c1cccs1 | inconclusive [inhibitor, partial curve] |
| O=S(=O)(Nc1ccc(-c2nc3cccnc3s2)cc1)c1cccs1 | inactive |
| COc1cc(NC(=S)NC(=O)c2ccc(C)cc2C)ccc1NC(=O)c1cccs1 | inconclusive [inhibitor, single point] |
| O=C(COC(=O)c1ccc(Cl)nc1)NC1CCCCCC1 | inconclusive [inhibitor, single point] |
| O=c1[nH]c(Cc2cccs2)nc2ccccc12 | inconclusive [inhibitor, partial curve, poor fit] |
| CN1C(=O)COc2ccc(C(=O)c3oc4ccccc4c3-c3cnc4c(c3)COc3ccccc3-4)cc21 | inconclusive [inhibitor, full curve] |
| CC(C)(Oc1ccc(Cl)cc1)C(=O)Nc1cccc(S(=O)(=O)NC2=NCCC2)c1 | inconclusive [inhibitor, single point] |
| C/C(=N\N1CCCCCC1)c1c(O)n(-c2ccc(Cl)cc2)c(=O)[nH]c1=O | inconclusive [inhibitor, partial curve] |
| Cc1noc(/C=C/N(C)C)c1S(=O)(=O)N1CCCC(C(=O)NC2CCCCC2)C1 (stereo not given) | inconclusive [inhibitor, single point] |
| CCc1cc(=O)oc2c(C)c(OC(C)C(=O)N3CC[C@@]4(O)CCCC[C@H]4C3)ccc12 (stereo not given in full) | inconclusive [inhibitor, partial curve] |
| N/C(=N\OC(=O)Nc1ccccc1)c1ncc([N+](=O)[O-])s1 | inconclusive [inhibitor, partial curve] |
| Cc1csc(=O)n1CC(=O)OCC(=O)Nc1ccc(F)c(F)c1 | inactive |

| Structure (SMILES) | Potency |
| --- | --- |
| O=c1[nH]ncc(N2CCN(C(c3ccccc3)c3ccccc3)CC2)c1Cl | inconclusive [inhibitor, partial curve, poor fit] |
| COc1ccc(-c2csc(N(CCCN(C)C)C(=O)c3ccc(C(C)(C)C)cc3)n2)cc1 | active: 13.1 µM |
| CN1c2ccccc2N(C)C1c1ccc2c(c1)OCO2 | active: 4.65 µM |
| C=C1c2ccccc2S(=O)(=O)N(Cc2ccccc2)C1COCc1ccccc1 (stereo not given) | inconclusive [inhibitor, single point] |
| N=c1c2c(n(Cc3ccc(Cl)cc3)c3c1CCC3)CCC2 | active: 0.208 µM |
| CCC(=O)Nc1sc(Cc2ccc3c(c2)OCO3)c(C)c1C(N)=O | inconclusive [inhibitor, single point] |
| COc1cc(OC)cc(-c2cc3nc(C)c(CCC(=O)NC(C)CCc4ccco4)c(C)n3n2)c1 (stereo not given) | active: 9.28 µM |
| COc1ccc(NC(=O)C2CCCN(S(=O)(=O)c3ccc4c(c3)CC(C)N4C(C)=O)C2)cc1 (stereo not given) | active: 13.1 µM |
| Nc1nc(Nc2ccccc2F)nc(NCc2ccccc2)c1[N+](=O)[O-] | inconclusive [inhibitor, single point] |
| COc1cc(CN2CCN(c3ccccc3C)CC2)cc([N+](=O)[O-])c1O | inconclusive [inhibitor, partial curve, poor fit] |
| O=C(Nc1ccc(S(=O)(=O)N2CCCCC2)cc1)c1ccncc1 | inconclusive [inhibitor, single point] |
| CCOC(=O)c1ccc(NC(=S)NCCCn2ccnc2)cc1 | inconclusive [inhibitor, single point] |
| CC(C)(C)c1cc(/C=N/O)cc(C(C)(C)C)c1O | inconclusive [inhibitor, single point] |
| Cc1cc(Br)ccc1OCC(=O)NNC(=O)C(=O)Nc1ccccc1 | inactive |
| CCC(CC(C)(C)O)C(=O)NNC(=S)Nc1ccccc1 (stereo not given) | inactive |
| CC1(C)Cc2c(c(-c3ccccc3)[nH]c(=O)c2C#N)CO1 | inconclusive [inhibitor, single point] |
| COc1ccc(CCNC(=O)c2cccc(Br)c2)cc1OC | inactive |
| COc1ccc(SC[C@H](Cc2ccccc2)N2CC[C@@H](C(C)(C)C)CCC2=O)cc1 | active: 11.7 µM |
| O=C(N/N=C/C1=Cc2ccccc2OC1)c1ccncc1 | inconclusive [inhibitor, partial curve] |
| NC(=S)N/N=C/c1ccccc1OCCSc1ccc(Cl)cc1 | inconclusive [inhibitor, single point] |
| Cc1oc2cc3oc(=O)cc(C)c3cc2c1C | inactive |
| COc1cccc(OC)c1/C(O)=C(\C#N)c1nc2ccccc2[nH]1 | inconclusive [inhibitor, partial curve] |
